This note sets out measurements from patent US8226943B2, “Antibodies to notch receptors” (OncoMed Pharmaceuticals, Inc., priority 2008, dated 2012).

Assay [1] has as its target T1, binding of Jagged1 to human Notch2 (Homo sapiens, UniProt Q04721).
T1 construct: expressed in transfected cells; host or cells: HEK-293, stably transfected with human Notch2
The assay is described as follows: FACS blocking of hJagged1 ECD-Fc binding to human Notch2 on HEK-293 cells. As to conditions: HEK-293 stably overexpressing human Notch2. How it is done:
(§1) A particular Fab (59R1) was identified that bound the human Notch2 receptor and blocked binding of Jagged1 to human Notch2. Binding of the 59R1 Fab to human Notch2 was verified by FACS assay using a stable human cell line HEK-293 which overexpressed human Notch2 (hN2) (FIG. 1A). Fab binding was detected by phycoerythrin (PE)-conjugated goat anti-human Fab (Jackson Immunochemicals). […] Ligand binding and blocking was determined by incubating hJagged 1 extracellular domain (ECD) fused to human Fc constant region with the cells and Fabs selected from the phage library and using PE-conjugated goat anti-human Fc gamma specific antibodies (Jackson Immunochemicals) for detection.
Highly hydrophobic CDRs have the potential, in certain instances, to allow for unfavorable, non-specific binding by an antibody. […] Heavy chain CDR3 affinity maturation was conducted by allowing restricted changes from the parental sequence (GIFFAI; SEQ ID NO:7) as shown in FIG. 1E. Improved variants were isolated by screening them for improved JAG1 blocking ability as shown in FIG. 1F (indicated with arrows). Briefly, Fabs (1 and 10 μg/ml) were mixed with hJAG1-rb Fc (preclustered 5 μg/ml to 2 μl/ml PE-conjugated donkey anti-rabbit) and then added to hNotch2 stably transfected 293 cells. hJAG1 binding was then assessed using flow cytometry. […]

Assay [2] concerns human Notch2 EGF deletion and point mutants. The assay is described as follows: FACS epitope mapping with full-length hNotch2 deletion and point mutants. Format: binding. The following applies: HEK 293, 10 μg/ml. How it is done: Point mutations were made within EGF10 of Notch2 fusion proteins and binding of 59R1 to each EGF10 mutant was determined by FACS analysis. HEK-293 cells were transiently transfected with the indicated Notch expression plasmid and GFP as a transfection control. GFP positive cells indicated expression of the transgene. The 59R1 Fab antibody was added to the cells at 10 μg/ml and detected by PE-conjugated goat anti-human (Jackson Immunochemicals).
FACS analysis of HEK-293 cells transiently transfected with the indicated Notch expression plasmid and GFP as a transfection control. GFP positive cells indicate expression of the transgene. Anti-Notch2 (59M70) was added at 20 μg/ml and detected by PE-conjugated goat anti-mouse (Caltag, #3004-4). 59R1 (IgG2) was added to the cells at 2 μg/ml and detected by PE-conjugated goat anti-human Fc gamma specific (Jackson Immunochemicals). Ligand binding was determined by incubation of the cells with human DLL4 extracellular domain (ECD) fused to rabbit IgG constant region at 5 μg/ml and detected by PE-conjugated donkey anti-rabbit.
A comparison analysis of the EGF 10 regions of human Notch1, Notch2, and Notch4 and the EGF 9 region of human Notch3 (the equivalent of EGF 10 in the other Notch receptors) was performed to determine likely binding sites for 59R1 (FIG. 14A). […] Binding to the mutants was determined by FACS analysis (FIGS. 14B and 14C). […]

The target in the next assay is T2, human Notch2 (Homo sapiens, UniProt Q04721).
T2 construct: expressed in transfected cells; host or cells: HEK-293, stably transfected
T2 sequence (Q04721 26-2471): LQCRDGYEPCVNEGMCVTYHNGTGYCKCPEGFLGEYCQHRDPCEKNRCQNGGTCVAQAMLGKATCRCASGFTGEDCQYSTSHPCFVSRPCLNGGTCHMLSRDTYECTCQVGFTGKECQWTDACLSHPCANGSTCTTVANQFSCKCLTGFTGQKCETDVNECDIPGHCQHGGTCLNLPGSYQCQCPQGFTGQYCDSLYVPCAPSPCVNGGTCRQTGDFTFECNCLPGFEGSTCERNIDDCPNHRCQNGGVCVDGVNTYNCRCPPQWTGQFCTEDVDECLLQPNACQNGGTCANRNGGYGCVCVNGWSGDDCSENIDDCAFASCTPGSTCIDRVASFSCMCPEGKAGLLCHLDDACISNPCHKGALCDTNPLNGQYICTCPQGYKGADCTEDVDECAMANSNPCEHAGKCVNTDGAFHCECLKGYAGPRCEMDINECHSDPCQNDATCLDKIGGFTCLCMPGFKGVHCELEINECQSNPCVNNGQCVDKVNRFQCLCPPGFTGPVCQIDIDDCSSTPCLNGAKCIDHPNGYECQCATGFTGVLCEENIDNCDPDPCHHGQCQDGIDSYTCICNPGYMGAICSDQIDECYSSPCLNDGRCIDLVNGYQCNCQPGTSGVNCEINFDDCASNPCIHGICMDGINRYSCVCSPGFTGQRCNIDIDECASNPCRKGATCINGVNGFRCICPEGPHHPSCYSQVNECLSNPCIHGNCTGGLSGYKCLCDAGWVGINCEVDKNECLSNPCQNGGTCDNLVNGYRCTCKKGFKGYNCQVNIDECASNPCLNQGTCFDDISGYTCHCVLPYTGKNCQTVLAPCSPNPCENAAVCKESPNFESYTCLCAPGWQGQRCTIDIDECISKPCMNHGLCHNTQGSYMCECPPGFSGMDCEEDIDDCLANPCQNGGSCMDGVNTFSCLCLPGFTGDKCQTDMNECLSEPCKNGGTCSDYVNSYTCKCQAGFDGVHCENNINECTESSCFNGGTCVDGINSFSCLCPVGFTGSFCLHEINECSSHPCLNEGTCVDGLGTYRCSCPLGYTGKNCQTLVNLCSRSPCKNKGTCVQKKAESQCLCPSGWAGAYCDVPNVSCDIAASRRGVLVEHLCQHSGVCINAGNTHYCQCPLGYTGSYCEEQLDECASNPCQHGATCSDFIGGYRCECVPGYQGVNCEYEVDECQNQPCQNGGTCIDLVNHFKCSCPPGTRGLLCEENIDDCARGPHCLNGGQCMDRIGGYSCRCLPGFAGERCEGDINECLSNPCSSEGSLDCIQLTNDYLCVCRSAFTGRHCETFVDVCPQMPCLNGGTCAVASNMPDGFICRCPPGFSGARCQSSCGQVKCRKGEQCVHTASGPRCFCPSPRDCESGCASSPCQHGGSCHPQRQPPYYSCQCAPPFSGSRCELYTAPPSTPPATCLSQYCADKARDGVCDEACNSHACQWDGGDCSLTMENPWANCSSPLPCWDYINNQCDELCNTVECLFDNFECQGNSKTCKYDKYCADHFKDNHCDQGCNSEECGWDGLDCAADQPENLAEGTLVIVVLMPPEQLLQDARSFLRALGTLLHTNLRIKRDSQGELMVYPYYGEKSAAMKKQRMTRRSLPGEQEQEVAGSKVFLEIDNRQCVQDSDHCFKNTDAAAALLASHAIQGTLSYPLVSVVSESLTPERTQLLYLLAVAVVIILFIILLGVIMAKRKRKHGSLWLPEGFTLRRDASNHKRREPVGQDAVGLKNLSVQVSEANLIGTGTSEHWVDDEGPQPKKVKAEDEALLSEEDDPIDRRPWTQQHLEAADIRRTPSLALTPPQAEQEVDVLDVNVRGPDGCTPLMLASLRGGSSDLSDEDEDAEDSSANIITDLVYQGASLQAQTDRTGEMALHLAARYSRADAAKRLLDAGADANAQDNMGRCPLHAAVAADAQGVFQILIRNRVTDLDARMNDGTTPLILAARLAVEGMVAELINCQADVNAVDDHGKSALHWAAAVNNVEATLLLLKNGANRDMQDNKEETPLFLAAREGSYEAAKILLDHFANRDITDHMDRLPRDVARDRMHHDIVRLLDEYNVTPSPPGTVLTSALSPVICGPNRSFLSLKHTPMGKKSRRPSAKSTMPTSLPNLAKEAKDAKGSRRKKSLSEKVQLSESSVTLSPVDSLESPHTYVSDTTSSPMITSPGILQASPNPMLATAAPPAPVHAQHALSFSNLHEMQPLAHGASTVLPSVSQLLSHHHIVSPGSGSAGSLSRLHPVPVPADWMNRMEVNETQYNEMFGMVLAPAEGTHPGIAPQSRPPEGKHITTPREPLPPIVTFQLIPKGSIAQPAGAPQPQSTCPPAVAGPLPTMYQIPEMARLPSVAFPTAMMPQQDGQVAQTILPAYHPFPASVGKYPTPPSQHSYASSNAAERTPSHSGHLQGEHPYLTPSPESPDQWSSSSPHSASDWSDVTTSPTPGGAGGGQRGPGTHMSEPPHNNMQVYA
In words: FACS binding to human Notch2 on stably transfected HEK-293 cells. The following applies: HEK-293 stably overexpressing human Notch2. The protocol:
as §1
In addition, the 59R1 IgG2 antibody was assayed for its ability to block binding of DLL4 to the human Notch 2 receptor by FACS analysis. HEK-293 cells stably overexpressing human Notch2 were incubated with the antibody at various concentration and then detected for hNotch2 binding (FIG. 1C) by PE-conjugated goat anti-human Fc gamma specific antibody, or ligand blocking activity (FIG. 1D). Ligand blocking was determined by incubating the cells with human DLL4 ECD tagged with the rabbit Fc constant region and the 59R1 antibody at a range of concentrations, and then detecting the hDLL4 by PE-conjugated donkey anti-rabbit antibody. […]

In assay [3] the test system is recombinant human Notch2 Fc fusion proteins (EGF repeat deletion constructs). In words: ELISA epitope mapping with human Notch2 Fc deletion constructs. Format: binding. The following applies: Fab at 10 μg/ml. The protocol:
The binding of anti-Notch2/3 antibodies to supernatant from HEK 293 cells transfected with sequences encoding recombinant human Notch2 Fc fusion proteins comprising the full length human Notch2 protein or various human Notch2 deletion constructs containing various deletions of EGF repeats one to twelve were tested by ELISA. HEK-293 cells were transiently transfected with pcDNA 3.1 (Invitrogen) with hNotch2 cDNA's encoding for the indicated amino acids fused to the constant region of human IgG (hFc). Supernatants were harvested 48 hours later. To capture hN2hfc proteins, 96 well plates were first coated with goat anti-human Fc gamma specific IgG (Jackson Immunochemicals, #109-006-098) at 100 ng per well in sodium bicarbonate buffer overnight at 4°. Plates were washed and blocked in 5% bovine serum/PBS-Tween-20. Supernatants were added to plates and incubated at room temperature for 1 hour. Plates were washed in P135-T. 59R1 Fab was added at 10 μg/ml in 5% serum/PBS-T and incubated at room temperature for 1 hour. Plates were washed in PBS-T. Fab binding was detected by goat anti-human Fab specific antibody conjugated to horseradish peroxidase (Thermo, #31414) diluted 1:5000 in 5% serum/PBS-T for 1 hour at room temperature. Plates were washed and developed with 1 Step Ultra TMB (Thermo, #34028). Plates were read on a Perkin Elmer Victor 1420 plate reader. […] (FIG. 3A).
In general terms: ELISA stands for enzyme-linked immunosorbent assay.

T1 sequence (Q04721 26-2471): as above

B1: 59R1 Fab: Fab from phage display that bound the human Notch2 receptor and blocked binding of Jagged1; SEQ ID NO:11 and 12 (antibody, listed as Homo sapiens, V domains shown)
VL: MKKTAIAIAVALAGFATVAQADIVLTQSPATLSLSPGERATLSCRASQSVRSNYLAWYQQKPGQAPRLLIYGASSRATGVPARFSGSGSGTDFTLTISSLEPEDFAVYYCQQYSNFPITFGQGTKVEIKR
VH: MKQSTIALALLPLLFTPVTKAQVQLVESGGGLVQPGGSLRLSCAASGFTFSSSGMSWVRQAPGKGLEWVSVIASSGSNTYYADSVKGRFTISRDNSKNTLYLQMNSLRAEDTAVYYCARGIFFAIWGQGTLVTVSSA
Consider B1, for which the “blocking of hJagged1 binding to human Notch2 (FACS)” value in assay [1] is on record as “good blocking activity”. Further, the “FACS binding to full length Notch2 with EGF11 or EGF12 deleted” value in assay [2] is given as “retained”. The “binding to human Notch2 (FACS)” value in the assay with human Notch2 is “good binding”. The “ELISA binding to Notch2 Fc fusion proteins with EGF repeat deletions” value in assay [3] is reported as “bound only to supernatant from cells expressing recombinant Notch2 proteins comprising EGF10”.
